The list shows a part of the results. The full chains were built here from the parent and the listed change. Values near 0.05 are background.
B1: TEV protease; numbered along this chain (parent)
chain: MGESLFKGPRDYNPISSSICHLTNESDGHTTSLYGIGFGPFIITNKHLFRRNNGTLVVQSLHGVFKVKDTTTLQQHLVDGRDMIIIRMPKDFPPFPQKLKFREPQREERICLVTTNFQTKSMSSMVSDTSCTFPSGDGIFWKHWIQTKDGQCGSPLVSTRDGFIVGIHSASNFTNTNNYFTSVPKNFMELLTNQEAQQWVSGWRLNADSVLWGGHKVFMVKPEEPFQPVKEATQL

Variants of: B1
Assay: raw area under fraction-flipped curve 0-4 h after induction (AUC4h, not background-subtracted), DNA-recorder readout of cleavage of the substrate (dimensionless); higher = more cleavage of the substrate by the protease variant
Conditions: temperature: 34 °C; time window: 0-4 h after rhamnose induction
Protocol: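 In vivo DNA recorder in E. coli TOP10(DE3) ΔrhaA at 34 °C. Each TEVp single-site mutant (parent TEVp 0) is paired with a single-site variant of the 7-mer TEVs (canonical ENLYFQ|S). The substrate sits between flexible linkers in a Bxb1-sfGFP-TEVs-SsrA fusion, so cleavage stabilises Bxb1 and speeds flipping of a recombination array, read by NGS. The value is the raw area under the fraction-flipped curve over 0-4 h after rhamnose induction (AUC4h), with ≥20 reads per time point. It is not background-subtracted; inactive controls average about 0.047.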
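Further: Bxb1 expression induced with 0.2% (w/v) L-rhamnose at OD600 near 0.5, cultures sampled hourly, flipped fraction per protease–substrate barcode pair counted by paired-end Illumina sequencing.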

Row | Variant | area with substrate CNLYFQS | area with substrate DNLYFQS | area with substrate GNLYFQS | area with substrate HNLYFQS | area with substrate LNLYFQS | area with substrate MNLYFQS | area with substrate NNLYFQS | area with substrate PNLYFQS | area with substrate TNLYFQS | area with substrate WNLYFQS | area with substrate FNLYFQS | area with substrate INLYFQS | area with substrate SNLYFQS | area with substrate VNLYFQS | area with substrate KNLYFQS | area with substrate YNLYFQS | area with substrate QNLYFQS | area with substrate RNLYFQS
1 | V229E | 0.109 | 0.115 | 0.0635 | 0.0668 | 0.0666 | 0.0679 | 0.0673 | 0.0912 | 0.0677 | 0.0655 | – | – | – | – | – | – | – | –
2 | V229K | 0.0644 | 0.0789 | – | 0.072 | 0.0731 | – | – | 0.0668 | 0.0574 | – | 0.0524 | 0.0595 | 0.0506 | 0.0695 | – | – | – | –
3 | E189G | 0.0444 | 0.0842 | 0.0706 | 0.0639 | 0.0629 | – | 0.0704 | – | 0.0637 | 0.0556 | 0.0633 | 0.058 | – | – | 0.0651 | – | – | –
4 | E189N | 0.0414 | 0.0542 | – | 0.0624 | 0.0662 | – | – | 0.0691 | 0.059 | 0.0565 | 0.0743 | 0.073 | 0.0704 | 0.062 | 0.0734 | 0.0737 | – | –
5 | L99Y | 0.0591 | 0.0698 | 0.0593 | 0.0477 | – | – | – | 0.0487 | 0.0818 | 0.0559 | 0.0717 | 0.072 | 0.0767 | – | 0.0538 | – | 0.0628 | –
6 | L99Q | 0.0682 | 0.0653 | – | 0.0479 | – | 0.0698 | 0.052 | – | – | 0.0237 | – | 0.075 | – | – | – | – | – | 0.0676
7 | R10W | 0.081 | 0.0734 | 0.0657 | 0.0613 | 0.0576 | 0.0676 | – | 0.0773 | 0.0745 | 0.0575 | 0.0668 | – | 0.0592 | – | 0.0282 | – | 0.0641 | –
8 | E3C | 0.0728 | 0.09 | – | 0.0774 | – | – | – | – | 0.0657 | – | 0.0444 | 0.0689 | 0.0665 | – | 0.0692 | – | 0.0847 | –
9 | P222A | 0.0596 | 0.0593 | – | 0.0642 | – | 0.0472 | – | 0.08 | 0.052 | 0.0312 | – | – | 0.0741 | 0.063 | – | – | 0.071 | –
10 | E231V | 0.0586 | 0.0728 | 0.0738 | 0.0598 | 0.0574 | 0.0634 | – | 0.0674 | 0.0677 | 0.0644 | 0.0532 | – | 0.0751 | 0.069 | 0.0641 | 0.0329 | – | –
11 | K185S | 0.0625 | 0.0891 | 0.0593 | 0.0496 | 0.0514 | 0.0602 | – | 0.0813 | – | 0.074 | – | – | 0.0678 | – | – | 0.0455 | – | –
12 | K185M | 0.0813 | 0.07 | 0.0707 | 0.0657 | 0.0661 | 0.0609 | – | 0.0764 | 0.0654 | 0.0513 | 0.0552 | 0.064 | – | – | 0.0651 | 0.0657 | 0.126 | –
13 | V220G | 0.0621 | 0.0771 | 0.0837 | 0.068 | 0.0656 | – | – | 0.0732 | 0.053 | 0.061 | 0.0524 | 0.0584 | 0.094 | – | 0.0584 | 0.0662 | – | 0.0791
14 | L22D | 0.0483 | 0.051 | – | 0.0468 | 0.045 | 0.0173 | 0.0646 | 0.0452 | 0.0551 | 0.0371 | 0.0288 | 0.0497 | 0.0541 | 0.0423 | – | 0.0453 | 0.0458 | 0.0349
15 | S182R | 0.0609 | 0.0601 | 0.0738 | 0.0397 | 0.0593 | 0.0656 | – | 0.0635 | – | 0.048 | – | 0.0418 | – | – | – | – | – | –
16 | P9C | 0.0684 | 0.0613 | 0.101 | 0.0548 | – | 0.0608 | 0.0564 | – | 0.0738 | 0.0668 | – | 0.0749 | 0.0509 | – | – | – | 0.0647 | –
17 | M219T | 0.058 | 0.0673 | 0.0665 | 0.0549 | – | – | 0.048 | 0.0719 | 0.0663 | – | – | – | – | – | 0.0715 | 0.0569 | 0.0576 | –
18 | T174K | 0.0659 | 0.0733 | – | 0.06 | – | – | – | 0.0517 | – | 0.0594 | – | – | – | – | 0.0796 | – | – | –
19 | H29P | 0.0533 | 0.0877 | 0.0452 | 0.0589 | 0.0485 | – | 0.0614 | – | 0.0584 | 0.0505 | – | – | 0.0529 | – | 0.0716 | 0.063 | 0.0651 | 0.0733
20 | F133L | 0.0704 | 0.0746 | 0.0729 | 0.0684 | 0.0633 | 0.0646 | – | – | 0.0738 | 0.0437 | – | 0.0492 | 0.0676 | – | – | 0.0881 | – | –
21 | I15M | 0.048 | 0.0736 | – | – | – | 0.0629 | 0.0609 | 0.0668 | 0.0631 | 0.0625 | – | – | 0.0646 | 0.0727 | 0.0632 | 0.0605 | – | –
22 | Q75W | 0.0578 | 0.0547 | 0.076 | 0.0561 | – | – | – | 0.0568 | 0.0551 | 0.0524 | – | 0.0523 | 0.0518 | – | 0.0386 | 0.0563 | 0.0573 | –
23 | V57S | 0.0506 | 0.065 | – | 0.0475 | 0.026 | 0.0711 | – | 0.0731 | – | 0.0504 | 0.0698 | – | – | 0.0556 | – | 0.0673 | – | 0.0754
24 | N177P | 0.0789 | 0.0547 | 0.0751 | 0.0581 | 0.0679 | 0.0318 | – | – | 0.0677 | 0.0647 | 0.0627 | 0.0564 | 0.0589 | – | 0.0603 | 0.0551 | – | –
25 | K66M | 0.0644 | 0.0893 | – | 0.0717 | 0.0601 | 0.0603 | – | 0.0758 | 0.062 | 0.0654 | 0.0366 | 0.0662 | 0.0749 | – | 0.0571 | 0.0549 | – | –
26 | E107L | 0.0504 | 0.0747 | – | – | – | – | 0.0635 | – | – | 0.0552 | – | – | – | 0.0464 | – | – | – | –
27 | V183P | 0.0401 | 0.0796 | 0.0731 | 0.0569 | 0.0587 | 0.0638 | 0.068 | 0.0681 | 0.0642 | 0.0571 | – | 0.0348 | 0.0577 | 0.0602 | 0.0632 | 0.0455 | 0.0657 | –
28 | E195N | 0.0665 | 0.0786 | 0.059 | – | 0.0652 | 0.0417 | 0.0656 | 0.0544 | 0.0693 | 0.0558 | 0.0599 | 0.0324 | 0.0725 | – | 0.0725 | 0.0502 | – | –
29 | T132E | 0.0479 | 0.0494 | 0.0463 | 0.0492 | – | – | 0.0727 | 0.033 | – | 0.0579 | 0.0471 | 0.047 | – | – | 0.0406 | – | – | –
30 | G39F | 0.0454 | 0.0494 | 0.0442 | 0.0438 | 0.0443 | – | 0.0472 | 0.0512 | 0.041 | 0.0412 | 0.0473 | 0.0428 | 0.0572 | – | 0.0441 | 0.008 | – | –
